Where “and” joins values, the source holds several entries; their conditions need not be identical. Equal values may be shown once. About 31,000 (8.9%) of roughly 350,000 compounds were called active. The shares of active, inactive and inconclusive entries below differ from those in the screen. Calls come from the whole dose curve; as a rule, active = well fitted inhibition curve with a large enough effect; inconclusive = small, poorly fitted or top-dose-only effect; inactive = no such curve, though single readings can be large or run the other way. Where the call is inconclusive, the potency comes from a doubtful curve fit.
What follows are compounds tested against Histone-lysine N-methyltransferase EHMT2 (Homo sapiens) (UniProt Q96KQ7) (assay: qHTS Assay for Inhibitors of Histone Lysine Methyltransferase G9a). Settings: G9a H3K9 monomethylation, AlphaScreen, 2 h; activity, negative = inhibition: at 59 µM (top of the series) unless noted.
Outline: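 AlphaScreen detection with an anti-monomethyl H3K9 antibody quantified product after a 2 h room-temperature reaction containing 500 nM biotinylated H3K9 peptide, 20 µM SAM and 20 nM enzyme, which had been preincubated 15 min with compound.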
% is set by controls: 0 for no effect and ±100 for the full control effect; potency is the fitted concentration of half-maximal effect; tags give direction and shape of the fitted curve.
Note: nearly all actives have a fitted effect of over 75% in size.

Chain of UniProt Q96KQ7 (Q96KQ7 whole entry, looked up): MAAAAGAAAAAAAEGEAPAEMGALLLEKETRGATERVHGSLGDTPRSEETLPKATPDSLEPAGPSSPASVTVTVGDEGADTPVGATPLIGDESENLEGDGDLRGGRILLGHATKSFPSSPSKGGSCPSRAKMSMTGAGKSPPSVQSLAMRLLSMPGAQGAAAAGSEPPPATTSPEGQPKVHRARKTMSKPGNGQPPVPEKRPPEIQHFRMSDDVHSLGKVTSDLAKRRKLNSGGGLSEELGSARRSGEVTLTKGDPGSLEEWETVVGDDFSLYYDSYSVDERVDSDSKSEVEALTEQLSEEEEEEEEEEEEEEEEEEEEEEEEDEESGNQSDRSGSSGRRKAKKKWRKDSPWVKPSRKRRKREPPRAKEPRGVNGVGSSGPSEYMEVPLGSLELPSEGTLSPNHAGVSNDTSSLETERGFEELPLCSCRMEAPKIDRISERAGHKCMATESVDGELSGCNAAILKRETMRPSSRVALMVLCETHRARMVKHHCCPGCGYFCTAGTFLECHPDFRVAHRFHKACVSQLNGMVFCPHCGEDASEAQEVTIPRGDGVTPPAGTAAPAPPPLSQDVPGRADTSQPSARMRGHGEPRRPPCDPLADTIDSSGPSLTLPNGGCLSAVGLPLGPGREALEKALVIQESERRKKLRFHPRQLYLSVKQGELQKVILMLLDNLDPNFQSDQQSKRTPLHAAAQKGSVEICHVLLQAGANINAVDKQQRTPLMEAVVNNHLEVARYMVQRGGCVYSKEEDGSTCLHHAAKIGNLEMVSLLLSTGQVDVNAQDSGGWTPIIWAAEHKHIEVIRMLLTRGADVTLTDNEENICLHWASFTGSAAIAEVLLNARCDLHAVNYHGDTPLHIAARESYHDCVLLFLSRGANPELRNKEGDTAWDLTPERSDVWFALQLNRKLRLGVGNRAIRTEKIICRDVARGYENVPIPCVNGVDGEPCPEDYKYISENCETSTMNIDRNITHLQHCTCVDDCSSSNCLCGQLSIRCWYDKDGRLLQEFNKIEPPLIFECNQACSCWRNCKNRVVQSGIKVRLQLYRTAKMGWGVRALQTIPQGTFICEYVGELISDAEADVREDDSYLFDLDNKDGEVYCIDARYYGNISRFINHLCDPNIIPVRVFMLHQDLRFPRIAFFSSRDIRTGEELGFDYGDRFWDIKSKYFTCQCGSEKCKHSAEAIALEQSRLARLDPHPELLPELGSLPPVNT

SMILES	Potency	activity, negative = inhibition
CCC(C)(C)NC(=O)c1ccc(Sc2nncn2C)c([N+](=O)[O-])c1	inactive	
Cc1cc(-c2ccc([N+](=O)[O-])cc2)nc2ccccc12	inconclusive: 44.7 µM [inhibitor, partial curve, poor fit]	
CC1=CC(C)(C)N2C(=O)C3(NCCc4c3[nH]c3ccccc43)c3cc(C)cc1c32 (stereo not drawn)	inconclusive: 31.6 µM [inhibitor, single point]	
COc1ccc(C)cc1N(CC(=O)N/N=C/c1ccccc1C(=O)O)S(=O)(=O)c1ccccc1	inconclusive: 89.1 µM [inhibitor, partial curve, poor fit]	
Cc1nc(/N=C(\N)NC(=O)NC2CCCCC2)nc2ccccc12	inconclusive: 44.7 µM [inhibitor, partial curve, poor fit]	
CCCn1cnc2c(oc3ccccc32)c1=O	inconclusive: 0.282 µM [inhibitor, partial curve, poor fit]	
Cc1ccc(/C=N/n2c(C)nc3ccccc3c2=O)o1	inactive	
COc1ccccc1N1CCN(C(=O)c2ccccc2N(C)S(=O)(=O)c2ccc(C)cc2)CC1	inconclusive: 15.8 µM [inhibitor, partial curve, poor fit]	
COc1cccc(NC(=O)C(OC(=O)c2ccc([N+](=O)[O-])o2)c2ccccc2)c1 (stereo not drawn)	inconclusive: 22.4 µM [inhibitor, single point]	
CC(=O)C1=C(O)C(=O)N(c2ccc(O)cc2)C1c1ccc(F)cc1 (stereo not drawn)	inconclusive: 79.4 µM [inhibitor, single point]	
CCc1cc(-c2[nH]ncc2-c2ccc([N+](=O)[O-])cc2)c(O)cc1OC	active: 50.1 µM	
O=C(COC(=O)/C=C/c1ccccc1Cl)NCc1ccco1	inconclusive: 44.7 µM [inhibitor, partial curve, poor fit]	
CN(CCc1ccccn1)C(=O)CC1C(=O)NCCN1Cc1cccc(F)c1 (stereo not drawn)	inconclusive: 79.4 µM [inhibitor, single point]	
Cc1ccccc1CCNC(=O)C1CCN(S(=O)(=O)c2ccc3c(ccn3C)c2)CC1	inactive	
CC(=O)C1=C(O)C(=O)N(c2ccc(Br)cc2)C1c1cccc(F)c1 (stereo not drawn)	active: 44.7 µM	
O=C(Oc1c(Br)cc([N+](=O)[O-])cc1Br)c1cccnc1	inconclusive: 35.5 µM [inhibitor, single point]	
CC(C)(C)NCc1ccccc1OCc1cccs1	inconclusive: 22.4 µM [inhibitor, single point]	
CCOC(=O)c1c(N=CN(C)C)c2cc([N+](=O)[O-])cnc2n1C	inconclusive: 39.8 µM [inhibitor, single point]	
CCN(CC)C(=S)SCC(=O)c1ccc(F)cc1	inconclusive: 11.2 µM [inhibitor, partial curve, poor fit]	
CC(/C=C/c1ccccc1F)=N\NC(=O)c1ccccc1	inactive	
CC1CCc2c(sc(NC(=O)c3c([N+](=O)[O-])cnn3C)c2C(N)=O)C1 (stereo not drawn)	inactive	
Cc1cc(=O)[nH]c(SCC(=O)Nc2ccc(F)cc2)c1C#N	inconclusive: 70.8 µM [inhibitor, partial curve, poor fit]	

SMILES	Potency	activity, negative = inhibition
COc1ccc(C(=O)N(C)Cc2ccccn2)cc1OC1CCN(C(C)C)CC1	inconclusive: 25.1 µM [inhibitor, full curve]	
Nc1nc(-c2cccs2)c(-c2cccs2)s1	inconclusive: 89.1 µM [inhibitor, single point]	
Cc1oc2c(C)c3oc(=O)c(CC(=O)N4CCCCC4)c(C)c3cc2c1C	inactive	
CC(=O)Nc1ccc(NC(=O)[C@@H](NC(=O)c2ccccc2F)C(C)C)cc1		inactive: 8.77% [at 2.33 µM]
Cc1cc(Nc2ccccc2)nn1C(=O)c1ccc([N+](=O)[O-])cc1	inconclusive: 39.8 µM [inhibitor, single point]	
COc1ccc(-n2c(C)cc(C3=NNC(=NC4CC4)SC3)c2C)cc1	inactive	
COc1ccc(S(=O)(=O)N(C)CC(=O)Nc2ccc3c(c2)OCO3)cc1OC	inconclusive: 17.8 µM [inhibitor, partial curve, poor fit]	
Cc1ccc2nc(-c3ccncc3)cc(C(=O)NCc3ccccc3F)c2c1	inconclusive: 89.1 µM [inhibitor, single point]	
COc1ccc(S(=O)(=O)c2c(O)c3ccc(C(=O)Nc4ccccc4)cc3[nH]c2=O)cc1	inconclusive: 28.2 µM [inhibitor, partial curve, poor fit] and inconclusive: 89.1 µM [inhibitor, single point]	
Nc1cc(S(=O)(=O)c2ccc(O)c(N)c2)ccc1O	inconclusive: 1.41 µM [inhibitor, partial curve, poor fit]	
Nc1n[nH]c2c1C1(CCCCC1)Cc1ccccc1-2	inconclusive: 56.2 µM [inhibitor, partial curve, poor fit]	
C(=N\Nc1nc2ccccc2[nH]1)/c1c[nH]c2ccccc12	inactive	
Cc1cc(C(=O)NC(C)CCc2ccccc2)ccc1[N+](=O)[O-] (stereo not drawn)		inactive: -40.1% [at 0.501 µM]
COc1ccccc1C(=O)NNC(=S)NC(=O)c1ccco1	active: 28.2 µM	
CCOC(=O)N1CCN(Cc2ccc(O)c3ncccc23)CC1	active: 0.794 µM	
CCCSc1ncc(Cl)c(C(=O)Nc2nc3ccc(C)cc3s2)n1	inactive	
CC(C)[C@H](NC(=O)N1CCn2c1nc1ccccc12)C(=O)N[C@H](Cc1ccccc1)C(=O)O	inconclusive: 0.708 µM [inhibitor, single point]	
CC1=NN(c2ccc(C(=O)O)c(N)c2)C(=O)C1	active: 4.47 µM	
O=C(Cn1nc(C(=O)O)c2ccccc2c1=O)NCCC1=CCCCC1	inconclusive: 15.8 µM [inhibitor, single point]	
O=C(c1ccc([N+](=O)[O-])cc1)N1CCSC1c1cccc(Cl)c1 (stereo not drawn)	active: 79.4 µM	
CCOc1cc(C2C3=C(CCCC3=O)NC3=C2C(=O)CCC3)ccc1OCCO		inactive: -27.9% [at 12.7 µM]
